The full ranking holds about 33,000 sequences; the median of “E-score (-0.5 to 0.5)” is about -0.053, and the highest 2% start at about 0.37. The list shows a part of the results.
Target: Hap1 (UniProt P0CE41)
Test: PBM E-score (8-mer binding enrichment) (E-score (-0.5 to 0.5)); higher = stronger / more preferred TF binding; most listed sequences are background and not binding sites
Settings: protein concentration: 200 nM; construct: GST-DNA-binding domain
In short: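 Using PURExpress in vitro transcription/translation, GST-tagged yeast transcription factors were made in full-length or DNA-binding-domain form. These were applied at about 100-200 nM to double-stranded universal all-10-mer Agilent arrays, and bound protein was detected with fluorescent anti-GST. Scans were normalised with masliner before the Universal PBM Analysis Suite assigned E-scores to ungapped eight-base words pooled with their reverse complements.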

Chain of UniProt P0CE41 (P0CE41 whole entry): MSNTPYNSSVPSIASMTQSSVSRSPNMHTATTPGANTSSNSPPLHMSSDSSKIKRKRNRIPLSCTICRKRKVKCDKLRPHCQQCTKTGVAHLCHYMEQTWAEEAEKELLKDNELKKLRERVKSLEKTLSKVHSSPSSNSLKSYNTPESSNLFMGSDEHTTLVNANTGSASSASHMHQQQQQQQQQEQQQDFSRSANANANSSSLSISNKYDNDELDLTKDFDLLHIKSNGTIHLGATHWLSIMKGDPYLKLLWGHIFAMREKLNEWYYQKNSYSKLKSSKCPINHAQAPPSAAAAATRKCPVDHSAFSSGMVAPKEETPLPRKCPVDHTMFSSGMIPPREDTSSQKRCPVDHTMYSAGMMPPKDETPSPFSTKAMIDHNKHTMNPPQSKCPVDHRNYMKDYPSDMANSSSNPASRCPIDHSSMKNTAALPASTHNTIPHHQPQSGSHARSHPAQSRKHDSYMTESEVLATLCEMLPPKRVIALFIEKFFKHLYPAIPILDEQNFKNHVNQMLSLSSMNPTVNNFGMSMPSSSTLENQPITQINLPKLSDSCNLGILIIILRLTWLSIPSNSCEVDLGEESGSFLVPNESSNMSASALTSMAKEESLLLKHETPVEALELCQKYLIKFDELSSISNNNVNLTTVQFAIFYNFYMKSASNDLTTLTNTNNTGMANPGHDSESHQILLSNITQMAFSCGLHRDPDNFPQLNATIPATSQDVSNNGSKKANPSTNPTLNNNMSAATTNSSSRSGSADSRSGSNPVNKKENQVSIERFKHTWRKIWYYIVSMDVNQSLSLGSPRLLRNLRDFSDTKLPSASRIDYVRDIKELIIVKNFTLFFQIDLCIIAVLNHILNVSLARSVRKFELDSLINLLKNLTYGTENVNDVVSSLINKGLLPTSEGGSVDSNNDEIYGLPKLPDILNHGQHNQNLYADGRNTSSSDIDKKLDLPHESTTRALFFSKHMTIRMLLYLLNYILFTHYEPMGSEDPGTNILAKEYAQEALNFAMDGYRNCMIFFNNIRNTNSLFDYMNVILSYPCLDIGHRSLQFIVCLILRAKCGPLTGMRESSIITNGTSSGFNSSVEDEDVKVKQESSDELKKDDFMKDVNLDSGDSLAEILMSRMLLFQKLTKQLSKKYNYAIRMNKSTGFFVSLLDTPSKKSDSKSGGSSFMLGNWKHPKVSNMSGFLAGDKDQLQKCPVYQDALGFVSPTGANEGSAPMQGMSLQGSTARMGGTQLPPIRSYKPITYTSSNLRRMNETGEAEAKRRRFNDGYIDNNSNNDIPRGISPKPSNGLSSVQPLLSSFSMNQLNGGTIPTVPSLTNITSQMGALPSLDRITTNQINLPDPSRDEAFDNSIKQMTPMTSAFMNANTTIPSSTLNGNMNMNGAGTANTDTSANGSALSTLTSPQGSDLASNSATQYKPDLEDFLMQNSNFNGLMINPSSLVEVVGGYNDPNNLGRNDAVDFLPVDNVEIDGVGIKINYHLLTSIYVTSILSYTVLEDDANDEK

Sequence	PBM E-score
AGGTGAGG	-0.178
CCCGGCAA	0.401
GCCCTGCC	-0.1
GCATCACC	-0.0719
TTCCTAAA	-0.144
GGTGACAA	0.0944
CAGGGTCG	0.16
CTCTTTTA	-0.336
AAAGATCC	0.0926
AGGTTCCG	0.277
TGCACAAA	-0.295
AGCCATAC	-0.274
CCCGGATC	0.345
CACTGCAC	-0.077
AGTTCTTG	-0.141
ATGGTAAA	-0.0612
CGGAATAA	0.32
AAGATCGT	-0.0868
CTTTTTAC	-0.0669
CACACAGG	-0.286
ATGGCAAC	-0.023
GAATGGTA	-0.139
GTGTGTGA	-0.201
AAATCGTA	-0.0467

Sequence	PBM E-score
GTTCTTCA	-0.177
ACCAGTTA	-0.225
CGCTGTCA	-0.13
AATCCTCG	0.0735
AGTGTCTC	-0.0517
CCGTTTAA	0.239
GATGTTGC	0.0499
ACAGACTC	-0.259
GCTGCCAA	-0.148
ATATGGCA	-0.183
CACCCACG	0.0671
CTAGCACA	-0.188
ACGTGCAT	-0.299
TTCGACAA	-0.265
ACTTCCCC	-0.127
CCCCAACG	-0.0534
CGAGTAAC	0.07
GGACCCTA	-0.0296
GCTGCGGA	0.273
GTGTATCA	-0.0421
CAGCACAC	-0.233
ACAACAAG	-0.149
AAGTTAGG	-0.0844
AGTGTCAG	-0.352

Sequence	PBM E-score
ACTCCATC	0.234
ACTCGTCA	-0.226
CTTAGGGA	-0.308
CGGTCTAG	0.135
GGAGGGCA	-0.07
AAAATACG	-0.0193
CAATTTCA	-0.266
ATGGATGC	-0.177
CAGTACTG	-0.213
ATTAACCG	0.307
GACTCTAC	-0.172
TACTGGAA	-0.0919
AAGGGGGG	-0.228
ACTAGGGC	-0.197
CGCCGCCG	0.276
ATCCAAAG	-0.142
GTCCTAAC	-0.053
CACAGCGC	0.0269
CAATCGTA	-0.0582
CGCCGTGA	0.0995
CACGGGGC	0.16
AGAGGTCA	-0.04
ATATAATA	0.0467
GGGTAACA	-0.0917

Sequence	PBM E-score
CACGCGTC	0.177
CGCCATGC	-0.0187
ATCACTTC	-0.0867
AGACCCTC	-0.0464
CCCTTAAC	0.0199
CGTGGAAG	0.0468
CGCCTTAA	-0.0792
GGGGGACA	-0.0444
GGTGTGGA	-0.00568
CATTCACG	-0.0195
GGACCTAA	0.371
CAGTAACC	0.0446
GGTTATCA	-0.119
AACTTTGT	0.0406
CTTCTGGC	-0.347
ATTCCCCA	-0.074
CACGGGCA	-0.0139
TGCAACCA	-0.257
GTGGTGAA	-0.0351
CCTGGACA	-0.148
CCTAGTAC	-0.198
CCAGGCAA	-0.0424

Reference: the supplement of paper PMC3334620
